The whole screen tested about 420,000 compounds, of which about 50,000 (12%) were called active. Inconclusive means that the source gave no clear call. Such entries were picked first, then a sample of the others. Calls come from the whole dose curve; as a rule, active = well fitted inhibition curve with a large enough effect; inconclusive = small, poorly fitted or top-dose-only effect; inactive = flat fitted curve, though single readings scatter. No potency is given beside an inconclusive call; the fits are too rough.
experiment: qHTS for Inhibitors of human tyrosyl-DNA phosphodiesterase 1 (TDP1): qHTS in cells in presence of CPT; details: chicken DT40 Tdp1-/-;hTDP1 cells + 20 nM CPT, ATP luminescence, 48 h; activity change, negative = growth inhibition: at 46.2 µM (top of the series); note: nearly all actives have a fitted effect of over 55% in size
Summary of the method: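 Chicken DT40 Tdp1-/- cells complemented with human TDP1, 400 cells/well, exposed to compounds plus 20 nM camptothecin for at least 48 h at 37 C; viability read as ATP content by CellTiter-Glo luminescence.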
% is set by controls: 0 for no effect and ±100 for the full control effect; potency is the fitted concentration of half-maximal effect; tags give direction and shape of the fitted curve.

Compound | Potency | activity change, negative = growth inhibition
CCOc1ccc(N(CC)C(=O)Cn2cnc3sc(C)c(S(=O)(=O)N4CCN(c5ncccn5)CC4)c3c2=O)cc1 | active: 13 µM | 
Cc1cc(NS(=O)(=O)c2ccc(NC(=O)COc3cc(C)c(Br)cc3C(C)C)cc2)no1 | inconclusive [inhibitor, single point] | 
N#Cc1ccc(C23CC4(C2)[C@H](CN(Cc2ccc(-c5ccccc5)cc2)[C@@H]4c2ccccc2)C3c2ccccc2)cc1 (stereo partly specified) | inconclusive [inhibitor, single point] | 
Cc1sc2ncn(CC(=O)NCCCC(=O)N3CCC(C(N)=O)CC3)c(=O)c2c1C |  | inactive: 2.41%
O=C(CNS(=O)(=O)c1ccc(F)c(Cl)c1)N1CCCCCC1 |  | inactive: 15.9%
CCCCn1ccnc1C(=O)c1ccc(S(=O)(=O)N2CCCC2)cc1 |  | inconclusive: -33.7% [inhibitor]
CCOC(=O)c1c(C)[nH]c(-c2csc(C)n2)c1C |  | inconclusive: -34.4% [inhibitor]
CC[C@@]1(C(=O)OC)N[C@H](CN(C)C(C)=O)[C@@H]2C(=O)N(C)C(=O)[C@@H]21 |  | inactive: -0.511%
Cc1ccc(NC(=O)CCCn2nc(C)c3c(C)n(-c4ccccc4)nc3c2=O)c(Cl)c1 | inactive | 
O=c1[nH]c2ccc(S(=O)(=O)NCc3ccccc3)cc2[nH]1 |  | inactive: 6.05%
COc1ccc(-c2[nH]ncc2/C=N/NC(=O)c2cccc([N+](=O)[O-])c2)cc1OC |  | inactive: -9.12%
CN1CCS/C1=C/C=C1/SC(=S)N(Cc2ccccc2)C1=O | inconclusive [inhibitor, single point] | 
N#CCCn1c(=O)c(CCc2ccccc2)nc2cnc(Oc3ccccc3)nc21 |  | inactive: 2.85%
COc1ccc(OC)c(NC(=O)C2(C)CCN2Cc2ccccc2Cl)c1 (stereo unspecified) | inconclusive [inhibitor, single point] | 
CN(CC(=O)Nc1ccccc1Cl)C(=O)COC(=O)c1cc(S(=O)(=O)N(C)C)ccc1N1CCCC1 | inconclusive [inhibitor, single point] | 
Cn1c(=O)c2c(nc(SCCN3CCCCC3)n2Cc2ccccc2)n(C)c1=O |  | inconclusive: -38.3% [inhibitor]
CCCCNC(=O)c1cn(CC)c2ccc(S(=O)(=O)N3CCCCCC3)cc2c1=O |  | inactive: -27.6%
CCc1cccc(NC(=O)C2CCN(S(=O)(=O)c3ccc4c(c3)NC(=O)CO4)CC2)c1 | inconclusive [inhibitor, single point] | 
COc1ccccc1CNC(=O)/C=C/c1ccc(S(=O)(=O)NCc2ccco2)cc1 | inconclusive [inhibitor, single point] | 
COC(=O)c1cc(C(=O)OC)[nH]n1 |  | inactive: 14%
O=c1c2ccccc2cnn1-c1nc2ccccc2[nH]1 | active: 4.11 µM | 
O=C(NCC1CCCN1S(=O)(=O)c1cccs1)C(=O)Nc1ccccc1F (stereo unspecified) | inconclusive [inhibitor, partial curve] | 
COc1ccc(CNC(=O)CN2CCC(NC(=O)c3ccccc3C)CC2)cc1 |  | inactive: -3.56%

Compound | Potency | activity change, negative = growth inhibition
COc1ccc(CN(C)C(=O)c2cccc(C(=O)N(C)Cc3ccc(OC)cc3)c2)cc1 | inconclusive [inhibitor, single point] | 
NCC12CC3CC(C1)CC(c1ccc(Cl)cc1)(C3)C2 | active: 6.51 µM | 
O=C(Nc1c2c(nn1-c1ccc(Cl)cc1)CS(=O)(=O)C2)c1ccc(Br)cc1 | active: 23.1 µM | 
O=C(c1ccc(S(=O)(=O)c2ccc(F)cc2)c([N+](=O)[O-])c1)N1CCCCCC1 | active: 3.26 µM | 
Cc1ccc(C)c(S(=O)(=O)N2CCN(C(=O)Cc3ccc(S(=O)(=O)N4CCOCC4)s3)CC2)c1 | inconclusive [inhibitor, partial curve] | 
Cc1cc(O)c(CN2CCN(c3ccccc3)CC2)c2oc(=O)cc(C)c12 |  | inactive: 15.6%
CCN(CC)CCN(C(=O)CCOc1ccccc1)c1nc2ccc(F)cc2s1 | inconclusive [inhibitor, single point] | 
CCCSCCCNC(=O)Cn1c(-c2cccs2)cc2ccccc21 | inconclusive [inhibitor, single point] | 
CCc1nnc2sc(-c3cc(-c4ccccc4)nc4ccccc34)nn12 | active: 35.5 µM | 
N#Cc1cc(C(=O)c2cc(Cl)ccc2O)cn(CC2CCCO2)c1=O (stereo unspecified) | inconclusive [inhibitor, single point] | 
CC(=O)Nc1nc2cc3c(cc2s1)OCO3 | active: 23.1 µM | 
CCOC(=O)C1(C)CCCN1C(=O)c1ccc(F)c(Cl)c1 (stereo unspecified) | inconclusive [inhibitor, single point] | 
Cn1c(C(=O)N2CCN(c3ncccn3)CC2)cc2c(=O)n(C)c3ccccc3c21 | inconclusive [inhibitor, single point] | 
CCCn1c(=O)cc(N)n(-c2ccc(OC(F)(F)F)cc2)c1=O |  | inactive: 9.4%
Cc1nc(-c2ccc(S(=O)(=O)NCc3ccccc3Cl)cc2)co1 | inconclusive [inhibitor, single point] | 
CS(=O)(=O)N1CCc2cc(C(=O)Nc3ccc(O)cc3)ccc21 |  | inactive: 5.99%
O=C(Nc1ccccc1)C1CCCN(C(=O)c2ccc(Cl)cc2)C1 (stereo unspecified) | inconclusive [inhibitor, single point] | 
N/C(=N\NC(=O)c1ccc(Cl)cc1)c1cnccn1 | inconclusive [inhibitor, partial curve, poor fit] | 
CCOC(=O)Cn1nnc(-c2ccc(S(C)(=O)=O)cc2)n1 |  | inactive: 3.62%
CN(CC(=O)NCCc1ccccc1)S(=O)(=O)c1ccccc1 |  | inactive: 24.6%
CCN1CCN(C(=O)Cn2ncc3c4ccccc4n(Cc4c(C)cc(C)cc4C)c3c2=O)CC1 | inconclusive [inhibitor, single point] | 
Cc1cc(OCCCCN2C(=O)NC(C)(C)C2=O)ccc1[N+](=O)[O-] | inconclusive [inhibitor, single point] | 
Cc1c(/C=C(\CC(=O)O)c2nc3ccccc3s2)cc(C#N)n1C | inconclusive [inhibitor, single point] | 
